The chains are these.
B1: OR4K15 (parent)
chain: GUUAACGGUCAUAGGCCAUGGAAACUAGGAGCACCAUUUCGCUGCCAGUGAAGAAAUGAACAAAGAAAAUCUGGGCCAGGCAGGCAUCAAAAGAAAUAGUCUUGCGCUCAACCAGAAAGUCUGUAAUCAUUUUAAGGGUA

The source gives no read counts; variants with many changes may rest on few reads.

The variants in this data set derive from B1. Briefly: self-cleavage, relative activity (ratio to wild type); higher = more cleavage; in vitro, sequencing; the parent is a self-cleaving ribozyme.
With A51G A60G A118G U122C U131C, the self-cleavage came to 0.46.
With U49C A96G U103C U122C, the self-cleavage was 0.52.
As for A52G U87A U108C, the self-cleavage was 0.01.
For U49C A67G A96G A129U the value was 0.64; for A51G U70A A114U U124C, 0.03.
Take A51G A98G U100C U124C: the self-cleavage came to 0.55.
In the case of A51G U57C U70C U102C, the self-cleavage came to 1.43.
As to A52G G58U U108C A114C, the self-cleavage was 0.01.
Next, U49C A92U A94G U139C: 1.67; U49C U72A A96G A125U: 0.27.
For A52G A114G U130C the value was 0.16; for A51G U87C U108C A118G, 0.01; for A51G A56G G123A, 0.63.
For A51U U122C U127C the value was 0.78; for A51G A110G U133C, 0.17; for A51G A63G A66G A129G U132A, 0.7.
Regarding A52G A92U U127A, the self-cleavage stood at 2.
Next, A51G A54G G73A U97A: 0.17; A52G A68G U133C: 1.13; U49G A89G U120A: 0.99.
Next, A51G A64U U72A A86G U87C A111G: 0.02.
Turning to A51U A114U U132A, the self-cleavage was found to be 0.12.
Next, G50U A51G A86G: 1.76.
For A52G U70C U130C, the self-cleavage came to 0.41.
Next, A52G A60G C61U U87C U100C U124C: 1.7; A51G A66G U127C: 1.33.
For U49C A59G A90G, the self-cleavage worked out at 1.75.
Next, U49G A67G U131C: 1.3; U49C U70C A117G: 0.57.
In the case of A51G A54G U103C U139C, the self-cleavage is 1.06.
For A52G C85U U108C the value was 0.01.
For A51G A62G A68G the value was 0.65; for A51G A60G A114G, 0.59; for A52G U57C A64G A111G, 0.02.
A52G U57G A125G: the self-cleavage was 0.13.
For U49C U57C A66G the value was 0.78.
Regarding A52G G74A U103C, the self-cleavage amounted to 0.2.
Take A52G A111C U120A: the self-cleavage was found to be 0.02.
For A52U U70C U102C U122C U130C U131C the value was 1.23.
For A52G U72C A125G the value was 0.03.
On to A52U A64G U124C, for which the self-cleavage amounted to 0.98.
Next, A52G A86G A129U: 1.02; U49G A52G U124C: 0.32; A52G G53U A56G C77U A114G U122A: 1.83.
Regarding U49C A111G U133C, the self-cleavage came to 0.01.
For A52G A89G A92G the value was 0.48; for A51U A78C A118G U127G, 0.
For U49C A62G A92G A98G the value was 0.41; for A51U G83A U103C, 0.33.
For A51G A56G A92G U120C U131C, the self-cleavage amounted to 0.42.
As to A51G A118G U122C, the self-cleavage was found to be 1.34.
Regarding A51G A90G A117G, the self-cleavage stood at 0.99.
Next, U49C A64U A92G: 1.11.
Regarding A52G A54U A60G A95G A126G, the self-cleavage worked out at 0.27.
Next, A52G A62G A66G C85U: 0.65.
Turning to A51U A60G U122G, the self-cleavage turned out to be 1.97.
In the case of A52G U70A A126C, the self-cleavage was 0.26.
Next, A52G A92G U102C U108C A140G: 0; A52G A94G A135G: 1.84; U49C A92G A96U U97A: 1.58.
For A51G A67G A68G U87A U132C, the self-cleavage stood at 1.65.
For A51G A69G G104A A114G the value was 0; for A51G A126G U127A, 1.53.
For A52G A59G U103C the value was 1.15; for A51G A69U A94G A96U, 0.82; for A52G A68G A92U U108C, 0.
For A52G U57C A92G the value was 1.51; for A51G A52G U122C, 0.37; for U49C G53C A54G A78U, 0.24.
With A52U A62G A89G A140G, the self-cleavage was 0.33.
For A52G A64G A134G the value was 1.81; for A52G A62G A89G A117U U122C U130C, 1.
Next, A51G A54G A126G: 0.73.
For A51U A82G A89G the value was 0.85; for A51U A111G U130C, 0.03; for A51G G74A U100C A118G A140G, 0.11.
Take U49C G73A G84C A96G: the self-cleavage is 0.12.
For A51G U57C A94G A96C the value was 0.21; for U49C U102C A129G, 1.15; for A52G A64G A126G A129U A135G, 0.18.
Next, A51U A54G A55G A69G U103C: 1.18; A51G A67G A116G: 0.52.
Next, A52G A89U U97A: 1.67; A52U U100C A135U: 2.53; A52C A59G A67G U87C C88A A92G A117G U132C: 2.22.
Take A52G A94G A110G: the self-cleavage was found to be 0.18.
Regarding A52U A60G A62G A64G, the self-cleavage was found to be 0.76.
Next, A51G A69G A94G: 0.72; A52G A98G G115U G136A: 0.04; A52G A59G U124C: 1.13.
Next, A52G A68G U72C A91G A116G U130C: 0.08.
For A52G A118G U122C the value was 1.03; for A51U A66G A95G A117G, 0.83; for G50U A54U A92G U100C A110U, 2.51.
Take A51G A67G A111U: the self-cleavage was 0.22.
On to A51G A59G A118G, for which the self-cleavage came out at 0.64.
Turning to A51G A94G A116G A126G, the self-cleavage was 0.41.
Next, U49C U57A A68G: 0.37; A52G A90G G115A: 0.11; A51G A54G A56U A68G A116G: 1.13.
Next, G50C A94G A110G: 0; A51C A66G A117G: 0.83; U49C A67G A82G U122G: 0.45.
For A52G A55G A125G the value was 0.27; for A52G A56G U57A A135G, 1.15.
Take A51U A59U A91G U97A A117U: the self-cleavage is 1.03.
For A51U A63G A64C U132C the value was 0.07; for U49C U72C A78G, 0.34; for A52G A55U A64G A117G U122A U131A, 2.05.
U49C A92G U132C: the self-cleavage came out at 0.89.
For A52G A62U A68G A96G the value was 1.36; for A52U A59G A67U U72C, 0.53.
On to U49C A59G C128U, for which the self-cleavage amounted to 1.63.
Next, A51G A59G A78G: 0.27; U49C A67G A86G U87A A126G: 0.95.
Next, U49G A66G U139C: 0.69.
For the variant A51U A59G A96G A118G, the self-cleavage came to 0.83.
Take A52G A59G A63G U122C: the self-cleavage is 0.97.
Next, U49C U70C A140G: 0.92.
Take A52G A68G A89G: the self-cleavage stood at 1.69.
Next, A52G A64G G73U A89G A116U: 0.02; A52G G137U A140G: 1.06; A52G A66U A111G U120C: 0.01.
Regarding A51G U87C U130C, the self-cleavage was 0.41.
For A51U A64G A95G the value was 2.35; for A52G U103C U108C A111G A117G, 0; for A51G A67G A86U A92G U103C A111G, 0.03.
Next, A51G U120C U122C: 1.04; A51G A96G A118U: 0.25; A52G A68G U70C A110G A116G: 0.13.
For the variant A51G U100C U122C U130C A140G, the self-cleavage was 2.79.
As to A51G A59G U102C C128U, the self-cleavage stood at 1.38.
For A52G A89G U139C the value was 1.32; for A51G A110C A117G U127C, 0.27.
For A51G A59G U127A the value was 1.07; for A51G A56G A86G U87A, 1.48; for A52G A82U A94G U127C A135G, 0.01.
For U49C U57C A67G the value was 0.95.
On to A51G A64G A67G, for which the self-cleavage is 0.92.
With A52U A89U A140G, the self-cleavage was found to be 1.91.
Next, A52U A55U A86G A92G: 1.26.
Next, A51G A78U U132C: 0.4; A51G A67G A69G A117G U130G: 1.25.
For A52G A62G U103C A140G the value was 1.33; for A51U A56G A82U A140G, 0.29; for A51U U122G A134G, 2.11.
Regarding A52G U72A A78U, the self-cleavage is 0.12.
For A52G A118G A126G the value was 0.9; for A51C U72C A110U A111G A118G, 0.02.
For the variant A51G A59G A67G G79A, the self-cleavage is 0.16.
For A52G A55G A118G the value was 1.18; for A52G A59G A91G A118G, 0.49.
Next, A51G G58A A129G: 1.24.
For A51G A68G A129G the value was 0.99; for U49C A117G U139C, 0.83; for A52G A82U U127A, 0.57.
As to A51G U87C A118G A140G, the self-cleavage was determined as 1.35.
Next, A52G A62G U70C U131C: 0.11.
Next, A51G A64G U97A U122C: 1.82; A51G A92G U122C: 1.16; A51G A117G U122C: 1.6.
For A51G U102C U122C the value was 1.56; for A52G U102A G106A, 0.01; for A51U A55G U130C, 0.09.
On to A52G A59G A67G U70C A95G A135G, for which the self-cleavage was 0.46.
For U49C A96G A116G the value was 0.46.
For A51G A64G A126G the value was 1.17.

Source of the values: the RNAGym collection of RNA variant scans (doi:10.7554/elife.90254).
